To fix the notation:
B1: OR4K15 (parent)
chain: GUUAACGGUCAUAGGCCAUGGAAACUAGGAGCACCAUUUCGCUGCCAGUGAAGAAAUGAACAAAGAAAAUCUGGGCCAGGCAGGCAUCAAAAGAAAUAGUCUUGCGCUCAACCAGAAAGUCUGUAAUCAUUUUAAGGGUA

The source gives no read counts; variants with many changes may rest on few reads.

The variants in the data set derive from B1. Description: self-cleavage, relative activity (ratio to wild type); higher = more cleavage; in vitro, sequencing; the parent is a self-cleaving ribozyme.
In the case of G53A A68G A92G, the self-cleavage was determined as 1.22. With A54G A118U U130C the figure was 0.67; with A55G G80C A94G A111G, 0.04. For the variant A55G U57A A66G A82G, the self-cleavage came out at 0.27. For A54G A86G A91G, the self-cleavage worked out at 0.15. For A52G A63U U102C, the self-cleavage came out at 1.88.

As to A54G A62G A86U A92G A94G, the self-cleavage is 0.62. For A55G A78G A114G, the self-cleavage came to 0.01.

Consider A54G A78U A89U G106U, for which the self-cleavage was found to be 0.01.

As for A52U A98U A129G, the self-cleavage worked out at 2.92.

Turning to A55G A60G A135U, the self-cleavage was determined as 0.42.

Regarding A52U A59G A62G U87C, the self-cleavage was found to be 0.93. Turning to A52U A64G G75A U108C C113G, the self-cleavage stood at 0.01.

For the variant A55G A95G A96G, the self-cleavage amounted to 1.14. Consider A54G A89U G115A U122C A140G, for which the self-cleavage came out at 0.04. Regarding A55G A56G G74A, the self-cleavage worked out at 0.21.

Consider A55G A67G U124C, for which the self-cleavage was determined as 1.32. Regarding A52G A56G A92G A96U, the self-cleavage turned out to be 1.7.

Turning to A54U A60G A67G A89G U131C, the self-cleavage turned out to be 0.33. With A52G A64G U100C A129G, the self-cleavage was 2.73. For the variant A54G A78U A91G A111U U120C, the self-cleavage turned out to be 0.01. As for A52G U70C A125G, the self-cleavage was 0.16. For the variant A52G A78G U97C, the self-cleavage came out at 0.2. With A54G G123C U131C the figure was 0.79. Consider A52G G65A A111G A126G, for which the self-cleavage came to 0.01. Regarding A52G A63G C81U, the self-cleavage worked out at 0.59. The same measure for A54G A60G A66G U70C A90G U102A: 0.25; for A54G A63G A91G A118U: 0.83. In the case of A54G A56G U103C U139C, the self-cleavage came out at 0.14.

Consider A52G A63G A118G, for which the self-cleavage amounted to 2.11. For the variant G53U A67G U97A, the self-cleavage was determined as 1.97.

Consider A54G A64G A111G, for which the self-cleavage was 0. A52U U57C C105U U122C: the self-cleavage amounted to 0.07.

In the case of A54U U87A U120C A135G, the self-cleavage is 0.97. On to A54G A68G A116G, for which the self-cleavage is 0.5. The same measure for A52U A69G A82C A89G U127A: 0.2; for A54G A66G A126G U130C: 0.33. The same measure for A54G A60G A64G: 0.87; for A52G A67G A82U A94G U100C: 0.21; for A52G A94G A110U A118G: 0.89. With A52U A54U A55G A69G A78U U100C A110G the figure was 0.08; with A54G U100A A118G, 2; with A52G A90U U130C A135U, 0.79. For A54G A66G U97A G123A, the self-cleavage turned out to be 1.56. Turning to A54G A59G A114U A126C U127C, the self-cleavage was 0. The same measure for A55G A90G A118G U132C: 0.16; for A52G A67G A82G A114G: 0.17.

As for A52G A78G A91G, the self-cleavage turned out to be 0.07. Take A55G U72A U100C: the self-cleavage was found to be 0.43. As for A54G A62G A82G A91G, the self-cleavage amounted to 0.11.

A52G A54G A140U: the self-cleavage came out at 1.19. Consider A55G A68G U70C, for which the self-cleavage stood at 0.3. As for A52G G74A U87C, the self-cleavage turned out to be 0.14. For the variant A52G C77U U120C, the self-cleavage was found to be 1.65. As to G53U U57G A82G, the self-cleavage was determined as 0.47.

Take A52G A114G U139C: the self-cleavage is 0.49.

As for A54G A62G A67U U70C U103A U131C U132C, the self-cleavage was 0.08.

A55G A63G G74U A91G: the self-cleavage worked out at 0.21. For G53U A78G A82G U139C, the self-cleavage came out at 0.1. With A55G A63G A68G the figure was 0.28; with A52G A60G A90G, 0.66. A52G A66G U70A U122G: the self-cleavage worked out at 0.74. For the variant A54G A82G U103C U133C, the self-cleavage stood at 2.2. On to A54G A86U A94G U127C, for which the self-cleavage is 1. On to A52G U72A U102A, for which the self-cleavage is 0.11.

For the variant A52G U87A A110G, the self-cleavage stood at 0.11. With A55G A90G A94G the figure was 0.8; with G53A A95G C101U, 1.28. For A55G A114G U120A, the self-cleavage came out at 0.06. With A52G A89U A91G U131C, the self-cleavage amounted to 1.87. For the variant A55G A69U A125G, the self-cleavage stood at 0.65. For the variant A55G A86G A114G U131C, the self-cleavage is 0.2.

In the case of A52G A62G A90G, the self-cleavage came to 0.83.

In the case of A55G U70A A78G U102C, the self-cleavage was 0.17. The same measure for A54G A59U U87A: 1.21. Consider A55G A67G A114U, for which the self-cleavage is 0.08. Regarding A52G A90G U108C A116G A129G U131C, the self-cleavage came out at 0. Consider A54G A63G U100A A126G, for which the self-cleavage worked out at 0.37. As to A52G A55G A63U U70C U122C, the self-cleavage turned out to be 0.18. Take A52U A69G A118U A125G: the self-cleavage was found to be 0.28. For A52G A60G U97C, the self-cleavage was found to be 1.64. Turning to A54G A69G U102C U139C, the self-cleavage is 1.89. A55G A94G U103C: the self-cleavage was 0.46. Consider A55G A92G U97C U132C, for which the self-cleavage was 1.31. Turning to A52G U87A A135G, the self-cleavage was 1.24. A54U A63C U130C: the self-cleavage was 2.

As to A55G A68G U87C U122C, the self-cleavage turned out to be 1.19.

On to A55G A78U U132C, for which the self-cleavage came out at 0.17. For A52G A89C U108A, the self-cleavage was 0.01. Take A52U U57G A125G U130C: the self-cleavage was 0.26. As for A54G A114U U124G, the self-cleavage was 0.02. Take A54G A62G U87C U122C: the self-cleavage stood at 1.36.

On to A52G A60G A78G U87C A91G A98G A116U, for which the self-cleavage is 0.01. On to A54U U70A U108G, for which the self-cleavage amounted to 0.04. With A54G A78U U100A, the self-cleavage was determined as 0.04. The same measure for A52G A90G A114U A117G: 0. The same measure for A55G A62G A98G A126G: 0.18; for A54G C77U C107G U131C: 0.01; for A54U A60U A68G: 1.22. As to A54G A68G A111G, the self-cleavage turned out to be 0.02. As for A52G U70C G83A, the self-cleavage worked out at 1.18. For the variant A54G A63G U132C, the self-cleavage amounted to 1.44. Consider A52G A92G A116G, for which the self-cleavage is 1.57. With A54G C77U A116C, the self-cleavage was 0.37. As to A54G A68G A110G A129G, the self-cleavage came to 0.17.

Take A54G A62U A78G A91G U103C: the self-cleavage was 0.07. For A52U A59G U87A, the self-cleavage came to 1.58. Turning to A52G U57C U102C, the self-cleavage is 1.43. The same measure for A54G A62C U120C: 1.13. With A55G G74U U122C the figure was 0.09; with A54G A89G A117G, 2.31; with A55G A89G A140G, 0.49. For A52G U100C A114U A134U, the self-cleavage is 0.05. Consider A52G U102C U130C A140G, for which the self-cleavage amounted to 2.45. The same measure for A54G U100C A126G: 1.7; for A55G C105U A117G: 0.07; for A52G A98G U130C U133C: 0.18. In the case of A55G A63G A126G, the self-cleavage came to 0.93.

As to A52G A67U A94G, the self-cleavage is 0.94. Regarding A54G U102C G104U, the self-cleavage was determined as 0.06. For the variant A55G A62G U130C U132A, the self-cleavage is 1.08. In the case of A54G A96G A110U, the self-cleavage was 1.08. As to A52G A60G A69G C71A A116G, the self-cleavage worked out at 0.25. Take A52G A89G A92U: the self-cleavage was determined as 0.65.

For the variant A52G A78G U127C, the self-cleavage amounted to 0.11. As to A52G A68U A116G U122C, the self-cleavage stood at 0.98.

For the variant A55G A82U U103C, the self-cleavage came out at 0.08.

Consider A54G A59U A78G U87C A117G, for which the self-cleavage is 0.55.

With A52G A54G A89G A118G, the self-cleavage was found to be 1.01.

Turning to A52G A91G U139C, the self-cleavage is 1.18.

For A55G A63G U124A, the self-cleavage came to 0.61.

With A54G A64G A96G, the self-cleavage came out at 2.54. Take G53C A66G U139C: the self-cleavage was found to be 2.55. In the case of A54G A67G U122C, the self-cleavage amounted to 0.95.

For A55G A60G C112A, the self-cleavage was found to be 0.07. As for A55C U127A A135G, the self-cleavage is 0.88. The same measure for A54G A60G G75A A86U U102C: 0.19; for A54G A90U A118G: 1.62.

As to A54G A67U A126G A140U, the self-cleavage amounted to 1.28.

For the variant A54G A111U A114G A117G, the self-cleavage worked out at 0.03.

In the case of A55G A59G A60G A67G, the self-cleavage came to 0.31. For the variant A52G A90G A110G, the self-cleavage came out at 0.08. Turning to A52G A67G A68G A92G A110G A118G U132C, the self-cleavage worked out at 0.05.

As for A52G A59G A96G, the self-cleavage was 1.9. With A55G A60G A68U A69G U97C the figure was 0.57; with A54G A67G A96U A110U U122C, 1.14; with A55G A62G A64U, 1.81.

A55G A60G U103C: the self-cleavage was determined as 0.72. On to A55G A67G A89G A114G, for which the self-cleavage is 0.32. As to A52G A60C A67G A92U, the self-cleavage is 1.89. With A52U A66G A111U U120C U130C, the self-cleavage came to 0.02. Turning to A52G G74A U120A, the self-cleavage worked out at 0.17. As to A52G A67G A78G, the self-cleavage amounted to 0.56. With A52G A63G A67G the figure was 1.77; with A52G U108C A126G, 0. Take A54G A63U A68G A117U A126G U139C: the self-cleavage came to 0.24. For A54U G104A A117G, the self-cleavage came to 0.02. The same measure for A54G U122C U139C: 1.3; for A52G A62G A117U: 0.69; for A55G A59G A66U: 0.42. In the case of A54G A82G C85U A111G A129G, the self-cleavage was 0. On to A54G A94G U122A, for which the self-cleavage was found to be 1.68. For A52U A62U A67G U108C, the self-cleavage was determined as 0.05.

Take A54U A114U U127C: the self-cleavage came out at 0.02. In the case of A55G A78G C88U, the self-cleavage was 0.21. Consider A52G A59U U124A, for which the self-cleavage stood at 1.03. Regarding A52U U57C A68G U108C A117G U122C, the self-cleavage stood at 0.01.
